Experimental data: the supplement of paper PMC4166925
± gives the standard deviation of the averaged measurements. Whole data set: some 33,000 sequences, median “E-score (dimensionless, -0.5 to 0.5)” near -0.046, cut for the highest 2% near 0.36. The list shows a part of the results.

Tested on: T1, SpTbr T-box DNA-binding domain (GST fusion)
T1 sequence: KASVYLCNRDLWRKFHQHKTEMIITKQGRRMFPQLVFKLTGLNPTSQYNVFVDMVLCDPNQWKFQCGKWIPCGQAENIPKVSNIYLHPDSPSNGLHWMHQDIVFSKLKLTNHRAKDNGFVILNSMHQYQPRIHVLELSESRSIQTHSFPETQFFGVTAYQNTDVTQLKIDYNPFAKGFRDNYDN
Experiment: PBM E-score of 8-mer (E-score (dimensionless, -0.5 to 0.5)); Tbr is Tbrain of the sea star Patiria miniata (Pm) or the sea urchin Strongylocentrotus purpuratus (Sp); higher = stronger binding preference; most listed sequences are background and not binding sites
Details: the construct has about 5 more residues each side
Description: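 Universal protein-binding microarray (Agilent AMADID 016060, 60-bp probes with a 35-bp variable region) incubated with 200 nM GST-fused Strongylocentrotus purpuratus Tbr T-box DNA-binding domain (residues 362-554) in PBS pH 7.5. Scored for every ungapped 8-mer (given with its reverse complement) as E-score (range -0.5 to 0.5; >0.45 counts as bound) and Z-score of median probe intensity. Two replicate arrays (datasets 1 and 2).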
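Note: protein at 200 nM in PBS on universal double-stranded arrays.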

Row | Sequence | PBM E-score of 8-mer
1 | CGCCGAGC | 0.132 ± 0.025
2 | CCTTGTGC | -0.0284 ± 0.0089
3 | TGCCCCAA | -0.137 ± 0.02
4 | CGTAGACA | 0.0296 ± 0.012
5 | GAGGTTAC | 0.00103 ± 0.04
6 | GAAAATAC | 0.148 ± 0.053
7 | AAATCATG | -0.0529 ± 0.011
8 | CCGTAAAG | -0.0479 ± 0.033
9 | GGCGCCCA | 0.164 ± 0.077
10 | CTGGTGGA | -0.174 ± 0.014
11 | ATAACGGA | -0.197 ± 0.07
12 | AGGCTTAT | -0.0619 ± 0.046
13 | ATAGCCTA | -0.17 ± 0.033
14 | CGTGCAAC | -0.0122 ± 0.11
15 | GTCTTAGA | -0.195 ± 0.054
16 | AATACAGG | -0.138 ± 0.0047
17 | GCTGCTAA | 0.11 ± 0.006
18 | AACAGATC | 0.137 ± 0.015
19 | GTTGGCTA | -0.00618 ± 0.0014
20 | ACGCGCCC | 0.0742 ± 0.031
21 | GGGTTACC | -0.148 ± 0.034
22 | CCATTATC | -0.129 ± 0.12
23 | CCAGTCCG | -0.15 ± 0.011
24 | TAATCAGA | -0.122 ± 0.018
25 | CATTTCAC | 0.209 ± 0.045

Row | Sequence | PBM E-score of 8-mer
26 | CTCCGCAC | 0.0941 ± 0.033
27 | GCCCTCAC | 0.205 ± 0.042
28 | CATCTGCC | -0.186 ± 0.084
29 | CCTGGGGC | -0.184 ± 0.006
30 | AACTGCTC | 0.00139 ± 0.031
31 | CGCTCTCC | -0.0984 ± 0.027
32 | ACATGAAT | 0.128 ± 0.076
33 | CCCCTCCA | 0.0101 ± 0.067
34 | AGATTCCC | 0.0028 ± 0.016
35 | ACGATGGG | -0.196 ± 0.062
36 | CTATAACA | 0.226 ± 0.025
37 | ATACGCGG | -0.0745 ± 0.021
38 | AGGGACTG | -0.214 ± 0.048
39 | ACGATTAG | -0.0372 ± 0.04
40 | GTGTTTAA | 0.211 ± 0.079
41 | GCAAAAGA | -0.133 ± 0.038
42 | ATAGCCCG | -0.238 ± 0.021
43 | CTAACGAA | 0.162 ± 0.044
44 | GGGTGAAC | -0.0752 ± 0.084
45 | CTGTTCGA | 0.124 ± 0.0058
46 | AAGTGATT | 0.0911 ± 0.026
47 | ATTCCTCC | -0.207 ± 0.057
48 | CTGTTGCC | 0.00709 ± 0.025
49 | GACTTTTA | -0.207 ± 0.076
50 | ATAGACCG | -0.285 ± 0.076

Row | Sequence | PBM E-score of 8-mer
51 | CTTCGCTC | -0.00285 ± 0.036
52 | CTGCCGTC | 0.0984 ± 0.037
53 | GAAATCCA | -0.092 ± 0.023
54 | GGTTAATA | -0.0399 ± 0.046
55 | CAGCTGGG | -0.0941 ± 0.13
56 | AGACTACC | -0.154 ± 0.059
57 | ATCAAACC | -0.137 ± 0.011
58 | GCATAGCC | -0.241 ± 0.055
59 | AACGAGTA | 0.031 ± 0.015
60 | CGTGGATA | 0.0438 ± 0.075
61 | ATCCAGTC | -0.36 ± 0.015
62 | AAGCGGTC | 0.11 ± 0.018
63 | ACGTTCAG | -0.122 ± 0.029
64 | GCGGTACA | -0.0858 ± 0.04
65 | AGCACACT | 0.28 ± 0.034
66 | ATCAGATC | -0.0884 ± 0.036
67 | CAATTGTA | 0.00751 ± 0.072
68 | ACAACCCC | 0.115 ± 0.0058
69 | GATGGTAC | -0.12 ± 0.032
70 | CCTTAGCC | 0.0413 ± 0.016
71 | TCTAAAGA | -0.229 ± 0.019
72 | AACCTTAT | -0.137 ± 0.027
73 | ACTCCGGA | -0.0213 ± 0.013
74 | CCAGTCAA | 0.0495 ± 0.0022
75 | AACGGATA | -0.00801 ± 0.023

Row | Sequence | PBM E-score of 8-mer
76 | ACGGGCAC | -0.0683 ± 0.048
77 | CGCGAGGC | 0.339 ± 0.032
78 | AATAGATC | -0.185 ± 0.063
79 | ATGCGAAT | 0.129 ± 0.048
80 | AATAATGA | -0.102 ± 0.0057
81 | GAAAATGA | -0.0154 ± 0.014
82 | AGACCAAG | 0.0098 ± 0.00058
83 | GAATGCAA | -0.152 ± 0.016
84 | ACCGGTAC | -0.1754 ± 0.0017
85 | CGATAAGC | 0.108 ± 0.074
86 | TGGAGGAA | -0.056 ± 0.022
87 | AGATAGGG | -0.0962 ± 0.062
88 | CTGCCAAA | 0.0249 ± 0.15
89 | CGATTCTA | -0.108 ± 0.062
90 | AAAAGTCC | -0.2028 ± 0.0019
91 | AGTCCACT | -0.0663 ± 0.0069
92 | AAGAAGGT | -0.00399 ± 0.0071
93 | CTACCGCC | -0.122 ± 0.028
94 | AAGTCATC | -0.145 ± 0.029
95 | AGAAGGCC | -0.0423 ± 0.037
96 | AAGAACGG | -0.11 ± 0.038
97 | ATTGCAAG | -0.00583 ± 0.0034
98 | AGATCACA | 0.342 ± 0.02
99 | AAGGCTAT | -0.146 ± 0.024
100 | AGGCAGAA | -0.135 ± 0.014

Row | Sequence | PBM E-score of 8-mer
101 | CCCGAAAG | -0.0424 ± 0.00067
102 | CATGTGGC | 0.0468 ± 0.12
103 | AGAGATCC | -0.0897 ± 0.0046
104 | CTAGCCGC | 0.0427 ± 0.047
105 | CCACTTAC | 0.161 ± 0.0085
106 | GGCGCGCC | 0.237 ± 0.032
107 | ACTACAAT | 0.0271 ± 0.027
108 | ATTTCCCA | 0.0156 ± 0.022
109 | ATAACACG | 0.303 ± 0.033
110 | AGGCATCC | -0.354 ± 0.04
111 | GGAAGTTA | -0.0319 ± 0.0054
112 | AATCAAAC | 0.0427 ± 0.047
113 | GGTTCATA | -0.0395 ± 0.039
114 | CCCCCCGG | -0.235 ± 0.0081
115 | CGATCTAC | -0.0987 ± 0.0049
116 | GTTGCTAA | 0.223 ± 0.048
117 | CTGTGAAG | 0.296 ± 0.027
118 | CCCTGTGA | 0.052 ± 0.031
119 | CGAACAGC | 0.0761 ± 0.05
120 | CCTGTTAC | 0.177 ± 0.0078
121 | ACCTGATA | 0.0567 ± 0.051
122 | CCCGTTCA | 0.0431 ± 0.035
123 | CCAACAGG | 0.0658 ± 0.0022
124 | CTATATAC | 0.0352 ± 0.036
125 | AAAGGGGG | -0.2361 ± 0.0016

Row | Sequence | PBM E-score of 8-mer
126 | TTGACAAA | 0.288 ± 0.067
127 | ACAATCGT | 0.12 ± 0.013
128 | GGTACTAA | -0.072 ± 0.0098
129 | GTGGCTAA | 0.033 ± 0.025
130 | ACGATCCC | 0.0353 ± 0.042
131 | CCAAGCGG | -0.256 ± 0.035
132 | AGAGCAAG | -0.123 ± 0.067
133 | ACACGAGT | 0.0737 ± 0.029
134 | CGTCCATA | 0.0256 ± 0.013
135 | GCGGTATA | -0.177 ± 0.057
136 | GGCCACCA | -0.0858 ± 0.015
137 | CGGAATTA | -0.216 ± 0.0064
138 | CTTATCAC | 0.322 ± 0.033
139 | GGATGCGA | 0.108 ± 0.094
140 | AGGAAACT | -0.0834 ± 0.015
141 | ACCCTATA | -0.177 ± 0.11
142 | ATTCCATC | -0.0667 ± 0.01
143 | GGCCTTAC | -0.0589 ± 0.025
144 | CGGGCGGA | -0.172 ± 0.047
145 | AAAGATAA | -0.0695 ± 0.021
146 | CAGGACCG | -0.247 ± 0.039
147 | CTACAGGA | 0.0135 ± 0.032
148 | AAATGATC | 0.0233 ± 0.019
149 | CGGGCTCC | -0.273 ± 0.016
150 | GCCAATTA | 0.0843 ± 0.028

Row | Sequence | PBM E-score of 8-mer
151 | ACGTTTAG | -0.15 ± 0.086
152 | CGTGTGTC | 0.172 ± 0.058
153 | ATGCTTCG | 0.0174 ± 0.071
154 | ACAGGATC | 0.00176 ± 0.0086
155 | CTCACGTC | 0.247 ± 0.03
156 | CGGGACTA | -0.105 ± 0.035
157 | AAAATATG | -0.255 ± 0.038
158 | GAAACGAA | 0.101 ± 0.038
159 | CCCAATTA | -0.0909 ± 0.1
160 | CCACATGA | 0.11 ± 0.048
161 | GAAGTGAC | 0.3632 ± 0.0018
162 | CGAAGGGC | -0.145 ± 0.025
163 | ACAATAAT | 0.0607 ± 0.029
164 | CGACCTCG | 0.0365 ± 0.0097
165 | TCACGAGA | 0.172 ± 0.024
166 | CACTCCTG | 0.091 ± 0.035
167 | ACTGAAGC | 0.0518 ± 0.056
168 | GCACCAGA | -0.033 ± 0.019
169 | AGCCGCAA | 0.1248 ± 0.00087
170 | CCGCTTTC | -0.0817 ± 0.04
171 | GGGCTTCA | -0.169 ± 0.0053
172 | ATAGTCAG | 0.0204 ± 0.017
